{"source": "paper PMC9911399", "about": "“Two distinct binding modes provide the RNA-binding protein RbFox with extraordinary sequence specificity”", "binders": {"B1": {"name": "ACACUUG (DNA:RNA)", "RNA": "GGGAGACCGGAAUUCAGAUUGUCCACACUUGUUAAAUCCCGUCGUAGCCACCA", "DNA 1": "CAATCTGAATTCCGGTCTCCC", "DNA 2": "TGGTGGCTACGACGGGATT"}, "B2": {"name": "CAGUCGU (DNA:RNA)", "RNA": "GGGAGACCGGAAUUCAGAUUGUCCCAGUCGUUUAAAUCCCGUCGUAGCCACCA", "DNA 1": "CAATCTGAATTCCGGTCTCCC", "DNA 2": "TGGTGGCTACGACGGGATT"}, "B3": {"name": "CUAAUGA (DNA:RNA)", "RNA": "B1 RNA with A25C, C26U, C28A, U30G, G31A", "DNA 1": "CAATCTGAATTCCGGTCTCCC", "DNA 2": "TGGTGGCTACGACGGGATT"}, "B4": {"name": "CACAAAA (DNA:RNA)", "RNA": "B2 RNA with G27C, U28A, C29A, G30A, U31A", "DNA 1": "CAATCTGAATTCCGGTCTCCC", "DNA 2": "TGGTGGCTACGACGGGATT"}, "B5": {"name": "AGCUCGU (DNA:RNA)", "RNA": "B2 RNA with C25A, A26G, G27C", "DNA 1": "CAATCTGAATTCCGGTCTCCC", "DNA 2": "TGGTGGCTACGACGGGATT"}, "B6": {"name": "UUGGCCG (DNA:RNA)", "RNA": "B2 RNA with C25U, A26U, U28G, G30C, U31G", "DNA 1": "CAATCTGAATTCCGGTCTCCC", "DNA 2": "TGGTGGCTACGACGGGATT"}, "B7": {"name": "GUACAUC (DNA:RNA)", "RNA": "B1 RNA with A25G, C26U, U29A, G31C", "DNA 1": "CAATCTGAATTCCGGTCTCCC", "DNA 2": "TGGTGGCTACGACGGGATT"}, "B8": {"name": "GGGUCUA (DNA:RNA)", "RNA": "B2 RNA with C25G, A26G, G30U, U31A", "DNA 1": "CAATCTGAATTCCGGTCTCCC", "DNA 2": "TGGTGGCTACGACGGGATT"}, "B9": {"name": "AACGAGA (DNA:RNA)", "RNA": "B2 RNA with C25A, G27C, U28G, C29A, U31A", "DNA 1": "CAATCTGAATTCCGGTCTCCC", "DNA 2": "TGGTGGCTACGACGGGATT"}, "B10": {"name": "UAUCUCA (DNA:RNA)", "RNA": "B1 RNA with A25U, C26A, A27U, U30C, G31A", "DNA 1": "CAATCTGAATTCCGGTCTCCC", "DNA 2": "TGGTGGCTACGACGGGATT"}, "B11": {"name": "GAAUAAA (DNA:RNA)", "RNA": "B2 RNA with C25G, G27A, C29A, G30A, U31A", "DNA 1": "CAATCTGAATTCCGGTCTCCC", "DNA 2": "TGGTGGCTACGACGGGATT"}, "B12": {"name": "ACACGAA (DNA:RNA)", "RNA": "B1 RNA with U29G, U30A, G31A", "DNA 1": "CAATCTGAATTCCGGTCTCCC", "DNA 2": "TGGTGGCTACGACGGGATT"}, "B13": {"name": "UUUCGCU (DNA:RNA)", "RNA": "B1 RNA with A25U, C26U, A27U, U29G, U30C, G31U", "DNA 1": "CAATCTGAATTCCGGTCTCCC", "DNA 2": "TGGTGGCTACGACGGGATT"}, "B14": {"name": "GGUACCG (DNA:RNA)", "RNA": "B1 RNA with A25G, C26G, A27U, C28A, U29C, U30C", "DNA 1": "CAATCTGAATTCCGGTCTCCC", "DNA 2": "TGGTGGCTACGACGGGATT"}, "B15": {"name": "CUGGUCG (DNA:RNA)", "RNA": "B1 RNA with A25C, C26U, A27G, C28G, U30C", "DNA 1": "CAATCTGAATTCCGGTCTCCC", "DNA 2": "TGGTGGCTACGACGGGATT"}, "B16": {"name": "CACCCUU (DNA:RNA)", "RNA": "B2 RNA with G27C, U28C, G30U", "DNA 1": "CAATCTGAATTCCGGTCTCCC", "DNA 2": "TGGTGGCTACGACGGGATT"}, "B17": {"name": "GCGCAUC (DNA:RNA)", "RNA": "B1 RNA with A25G, A27G, U29A, G31C", "DNA 1": "CAATCTGAATTCCGGTCTCCC", "DNA 2": "TGGTGGCTACGACGGGATT"}, "B18": {"name": "GCUUGGU (DNA:RNA)", "RNA": "B2 RNA with C25G, A26C, G27U, C29G", "DNA 1": "CAATCTGAATTCCGGTCTCCC", "DNA 2": "TGGTGGCTACGACGGGATT"}, "B19": {"name": "AGCGAUA (DNA:RNA)", "RNA": "B1 RNA with C26G, A27C, C28G, U29A, G31A", "DNA 1": "CAATCTGAATTCCGGTCTCCC", "DNA 2": "TGGTGGCTACGACGGGATT"}, "B20": {"name": "ACAGGUA (DNA:RNA)", "RNA": "B1 RNA with C28G, U29G, G31A", "DNA 1": "CAATCTGAATTCCGGTCTCCC", "DNA 2": "TGGTGGCTACGACGGGATT"}, "B21": {"name": "CUGGCGA (DNA:RNA)", "RNA": "B2 RNA with A26U, U28G, U31A", "DNA 1": "CAATCTGAATTCCGGTCTCCC", "DNA 2": "TGGTGGCTACGACGGGATT"}, "B22": {"name": "CAGCACU (DNA:RNA)", "RNA": "B2 RNA with U28C, C29A, G30C", "DNA 1": "CAATCTGAATTCCGGTCTCCC", "DNA 2": "TGGTGGCTACGACGGGATT"}, "B23": {"name": "AAAAGAC (DNA:RNA)", "RNA": "B1 RNA with C26A, C28A, U29G, U30A, G31C", "DNA 1": "CAATCTGAATTCCGGTCTCCC", "DNA 2": "TGGTGGCTACGACGGGATT"}, "B24": {"name": "CAUUCGA (DNA:RNA)", "RNA": "B2 RNA with G27U, U31A", "DNA 1": "CAATCTGAATTCCGGTCTCCC", "DNA 2": "TGGTGGCTACGACGGGATT"}, "B25": {"name": "AGCAGGU (DNA:RNA)", "RNA": "B2 RNA with C25A, A26G, G27C, U28A, C29G", "DNA 1": "CAATCTGAATTCCGGTCTCCC", "DNA 2": "TGGTGGCTACGACGGGATT"}, "B26": {"name": "GUUUUAG (DNA:RNA)", "RNA": "B1 RNA with A25G, C26U, A27U, C28U, U30A", "DNA 1": "CAATCTGAATTCCGGTCTCCC", "DNA 2": "TGGTGGCTACGACGGGATT"}, "B27": {"name": "UCAAGCG (DNA:RNA)", "RNA": "B1 RNA with A25U, C28A, U29G, U30C", "DNA 1": "CAATCTGAATTCCGGTCTCCC", "DNA 2": "TGGTGGCTACGACGGGATT"}, "B28": {"name": "GUUUAAA (DNA:RNA)", "RNA": "B2 RNA with C25G, A26U, G27U, C29A, G30A, U31A", "DNA 1": "CAATCTGAATTCCGGTCTCCC", "DNA 2": "TGGTGGCTACGACGGGATT"}, "B29": {"name": "GUCCACA (DNA:RNA)", "RNA": "B1 RNA with A25G, C26U, A27C, U29A, U30C, G31A", "DNA 1": "CAATCTGAATTCCGGTCTCCC", "DNA 2": "TGGTGGCTACGACGGGATT"}, "B30": {"name": "UACAUUA (DNA:RNA)", "RNA": "B1 RNA with A25U, C26A, A27C, C28A, G31A", "DNA 1": "CAATCTGAATTCCGGTCTCCC", "DNA 2": "TGGTGGCTACGACGGGATT"}, "B31": {"name": "GCCUUGG (DNA:RNA)", "RNA": "B1 RNA with A25G, A27C, C28U, U30G", "DNA 1": "CAATCTGAATTCCGGTCTCCC", "DNA 2": "TGGTGGCTACGACGGGATT"}}, "note": "Changes are numbered by the printed parent chain; changes in the protein carry UniProt numbers. This is one part of the list.", "data": [{"biological_target": "T1, RBFOX1 RRM (Homo sapiens, UniProt Q9NWB1 109-208)", "T1 sequence": "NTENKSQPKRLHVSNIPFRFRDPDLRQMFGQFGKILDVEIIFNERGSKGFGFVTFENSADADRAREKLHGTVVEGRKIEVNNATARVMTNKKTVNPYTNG", "assay": "EMSA; HiTS-Eq, 1 nM pool, 10 min; buffer printed only for the single-RNA assays: 10 mM Tris pH 7.5, 150 mM NaCl, 3.4 mM EDTA, 0.001% NP-40, 30 C", "conditions": "tags: His6 N-terminal (pET28a); label: 5' 32P", "method_in_brief": "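Purified RbFox RRM, wild type or mutant, was incubated for 10 min in 50 µL with 1 nM of a 5′-radiolabelled RNA pool carrying 7 randomized nucleotides, whose flanks were annealed to DNA oligonucleotides, over a series of increasing protein concentrations. Unbound RNA was resolved on 8% native PAGE, cut out, reverse-transcribed, barcoded by PCR and sequenced on an Illumina HiSeq 2500. Relative association constants were derived from changes in read counts for each RNA species versus the control reaction and normalised to the cognate motif.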", "values": [{"binder": "B1", "binding signal": "0.00587 KA relative to UGCAUGU"}, {"binder": "B2", "binding signal": "0.0115 KA relative to UGCAUGU"}, {"binder": "B3", "binding signal": "0.00907 KA relative to UGCAUGU"}, {"binder": "B4", "binding signal": "0.000994 KA relative to UGCAUGU"}, {"binder": "B5", "binding signal": "0.0167 KA relative to UGCAUGU"}, {"binder": "B6", "binding signal": "0.0281 KA relative to UGCAUGU"}, {"binder": "B7", "binding signal": "0.00647 KA relative to UGCAUGU"}, {"binder": "B8", "binding signal": "0.00955 KA relative to UGCAUGU"}, {"binder": "B9", "binding signal": "0.00507 KA relative to UGCAUGU"}, {"binder": "B10", "binding signal": "0.00389 KA relative to UGCAUGU"}, {"binder": "B11", "binding signal": "0.000638 KA relative to UGCAUGU"}, {"binder": "B12", "binding signal": "0.00347 KA relative to UGCAUGU"}, {"binder": "B13", "binding signal": "0.0163 KA relative to UGCAUGU"}, {"binder": "B14", "binding signal": "0.0159 KA relative to UGCAUGU"}, {"binder": "B15", "binding signal": "0.028 KA relative to UGCAUGU"}, {"binder": "B16", "binding signal": "0.00104 KA relative to UGCAUGU"}, {"binder": "B17", "binding signal": "0.0246 KA relative to UGCAUGU"}, {"binder": "B18", "binding signal": "0.0285 KA relative to UGCAUGU"}, {"binder": "B19", "binding signal": "0.00447 KA relative to UGCAUGU"}, {"binder": "B20", "binding signal": "0.00528 KA relative to UGCAUGU"}, {"binder": "B21", "binding signal": "0.0158 KA relative to UGCAUGU"}, {"binder": "B22", "binding signal": "0.00669 KA relative to UGCAUGU"}, {"binder": "B23", "binding signal": "0.00253 KA relative to UGCAUGU"}, {"binder": "B24", "binding signal": "0.00425 KA relative to UGCAUGU"}, {"binder": "B25", "binding signal": "0.00926 KA relative to UGCAUGU"}, {"binder": "B26", "binding signal": "0.0145 KA relative to UGCAUGU"}, {"binder": "B27", "binding signal": "0.00798 KA relative to UGCAUGU"}, {"binder": "B28", "binding signal": "0.00617 KA relative to UGCAUGU"}, {"binder": "B29", "binding signal": "0.00443 KA relative to UGCAUGU"}, {"binder": "B30", "binding signal": "0.00486 KA relative to UGCAUGU"}, {"binder": "B31", "binding signal": "0.0242 KA relative to UGCAUGU"}]}]}
